Reference: PubChem BioAssay AID330 (DTP/NCI, 2004)
Inconclusive results and toxic doses are left out. For part of its entries the source gives two or more results. The list is limited to them. An entry can have further records. The records of an entry differ, and nothing given here explains why; some may be repeats, others may stem from another dose, organism or construct than stated. A tag in brackets gives the origin of a value. Letters hold for one entry only.

Tested on: P388 leukemia ip, CD2F1 mice, survival T/C
Assay: NCI In Vivo Anticancer Drug Screen. Data for tumor model P388 Leukemia (intraperitoneal) in CD2F1 (CDF1) mice
Conditions: endpoint: median survival time, higher = longer survival

COc1cccc2c1C(=O)c1c(O)c3c(c(O)c1C2=O)CC(O)(C(C)=O)CC3OC1CC(N)C(O)C(C)O1 (centres undefined) was tested, and the T/C (dose: 11.7 mg/kg/injection, schedule: Q01DX009 (ip), vehicle: saline) was 115 % of control and 155 % of control and the T/C (dose: 20.0 mg/kg/injection, schedule: Q01DX009 (ip), vehicle: water) was 87 % of control, 94 % of control [sample A] and 90 % of control, 113 % of control [sample B] and 105 % of control, 106 % of control [sample C] and 114 % of control, 192 % of control [sample D] and 116 % of control, 181 % of control [sample E].

COc1cccc2c1C(=N)c1c(O)c3c(c(O)c1C2=O)C[C@@](O)(C(O)CO)C[C@@H]3OC1CC(N2CCOCC2)C(O)C(C)O1 (some centres undefined) was tested, and the T/C (dose: 25.0 mg/kg/injection, schedule: Q04DX003 (ip), vehicle: water) was 111 % of control and 159 % of control.

In the case of COc1cccc2c1C(=O)c1c(O)c3c(c(O)c1C2=O)C[C@@](O)(C(O)O)C[C@@H]3OC1CC(N)C(O)C(C)O1 (some centres undefined), the T/C (dose: 50.0 mg/kg/injection, schedule: Q04DX003 (ip), vehicle: water) is reported as 121 % of control and 153 % of control.
